Data published in the RNAGym collection of RNA variant scans (doi:10.1073/pnas.2313332121).
Variants at the floor of the assay are shown more often than the library holds them.

B1: TPR 5TU (parent)
chain: GGAUCUUCUCGAUCUAACAAAAAAGACAAAUCUGCCACAAAGCUUGAGAGCAUCUUCGGAUGCAGAGGCGGCAGCCUUCGGUGGCGCGAUAGCGCCAACGUUCUCAACUAUGACACGCAAAACGCGUGCUCCGUUGAAUGGAGUUUAUCAUG

Variants of: B1
Test: polymerase ribozyme fitness, log enrichment relative to wild type (log ratio); higher = more active; in vitro selection for triplet polymerase activity
Method in brief: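 A heterodimeric triplet polymerase ribozyme had each of its subunits mutagenized by PCR into a library, which was transcribed. One round of in vitro selection, done in triplicate, annealed each library with a biotinylated primer, its partner subunit and triplets, then incubated it frozen at −7 °C before gel excision of extended constructs, streptavidin-bead capture and RT-PCR. Fitness is the logarithm of genotype enrichment relative to wild-type enrichment, based on Illumina sequencing of inputs and outputs and inverse-variance-weighted replicate averages. A base-2 logarithm is used, and genotypes were kept only with ≥10 input reads and ≥1 read per output.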

| Variant | polymerase ribozyme fitness (log ratio) |
| --- | --- |
| GGAUCUUCUCGAUCUAACAAAAAAGACAAGUCUGCCACAAAGCUUGAGAUCAUCUUCGGAUGCAGAGGCGGCAGACUCCGGUGGCGCGAUAGCCCCAACGUUCUCAACUAUGACACGCAAAACGCGUGCUCCGUUGAAUGGAGUUUAUCAUG | ≤ -4.2 |
| GGAUCUUCUCGAUCUAACAAAAAAGACAAGUCUGCCACAAAGCUUGAGAGCAUCUUAGGAUGCAGAGGCGGCAGCCUUCGGUGGCGCGAUAGCGCCAACGUUCUCAACUAUGACACGCAAAACGCGUGCUCCGUUGAAUGGAGUUUAUCAUG | -2.9 |
| GGAUCUUCUCGAUCUAACAAAAAAGACAAGUCUGCCACAAAGCUUGAGAGCAUCUUCGGAUGCAGAGGCGGCAGCCUUCGGUGGCGGGAUAGCGCCAACGUUCUCAACUAUGACACGCAAAACGCGUGCUCCGUUGAAUGGAGUUUAUCAUG | ≤ -4.2 |
| GGAUCUUCUCGAUCUAACAAAAAAGACAAGUCUGCCACAAAUCUUGAGAGCAUCUUCGGAUGCAGAGGCGGCAGCCUUCGGUGGCGCGAUAGCGCCAACGUUCUCAACUAUGUUACGCAAAACGUGUGCUCCGUUGAAUGGAGUUUAUCAUG | ≤ -4.2 |
| GGAUCUUCUCGAUCUAACAAAAAAGACAAGUCUGCCACAAAGCUUGAGAGCAUCUUCGGAUGCAGAGGCGGCAGCCUUCGGUGGCGCGAUAGCGUCAACAUUCUCAACUAUGACACGCAAAACGCGUGCUCCGUUGAAUGGAGUUUAUCAUG | ≤ -4.2 |
| GGAUCUUCUCGAUCUAACAAAAAAGACAAGUCUGCCACAAAGCUUGAGAGCCUCUUCGGAUGCAGAGGCGGCAGCCUUCGGUGGAGCGAUAGCGCCAACGUUCUCAACUAUGACACGCAAAACGCGUGCUCCGUUGAAUGGAGUUUAUCAUG | ≤ -4.2 |
| GGAUCUUCUCGAUCUAACAAAAAAGACAAGUCUGCCACAAAGCUUGAGAGCAUCUUCUGAUGCAGAGGCGGCAGCCUUCGGUGGCGCGAUAGCGCCAACGUUCUCAACUAUGACACGUAAAACGCGUGCUCCGUUGAAUGGAGUUUAUCAUG | -3.95 |
| GGAUCUUCUCGAUCUAACAAAAAAGACAAGUCUCCCACCAAGCUUGAGAGCAUCUUCGGAUGCAGUGGCGGCAGCCUUCAGUGGCGCGAUAGCGCCAACGUUCUCAACGAUGACACGCAAUACGCGUGCUCCGUUGAAUGGAGUUUAUCCUG | ≤ -4.2 |
| GGAUCUUCUCGAUCUAACAAAAAAGACAAGUCUGCCACAAAGCUUGAGAGCAUCUUCGGAUGCAGAGGCGGCUGCCUUCGGUGGCGCGAUAGCGGCAACGUUCUCAACUAUGACACGCAAAACGCGUGCUCCGUUCAAUGGAGUUUAUCAUG | ≤ -4.2 |
| GGAUCUUCUCGAUCUAACAAAAAAGACAAGUCUGCCACAAAGCUUGAGAGCAUCUUCGGAUGCAGAGGCGACAGCCUUCGGUGGGGCGAUAGCGCCAACGUUCUCAACUAUGACACGCAAAACGCGUGCUCCGUUGAAUGCAGUUUAUCAUG | ≤ -4.2 |
| GGAUCUUCUCGAUCUAACAAAAAAGACAAGUCUGCCACAAAGCUUGAGACCAUCUUCGGAUGCAGAGGCGGCAGCCUUCGGUGGCGCGAUAGCGUCAACGUUCUCAACUAUGACACGCAAAACGCGUGCUCCGUUGAAUGGAGUUUAUCAUG | ≤ -4.2 |
| GGAUCUUCUCGAUCUAACAAAAAAGACAAGUCUGCCACAAAGCUUGAGAGCAUCUUUGGAUGUAGAGCCGGCAGCCUUCGGUGGCGCGAUAGCGUCAACGUUCUCAACUAUGACACGCACAACGGGUGCUCCGUUGAAUGGAGUUUAUCAUG | ≤ -4.2 |
| GGAUCUUCUCGAUCUAACAAAAAAGACAAGUCUGCCAUAAAGCUUGAGAGCAUCUUCGGAUGCAGAGGCGGCUGCCUGCGGUGGCGGGAUAGCGCCAACGUUCUGAACUAUGACACGCAAAACGCGUGCUCCGUUGAAUGGAGUUUAUCAUG | ≤ -4.2 |
| GGAUCUUCUCGAUCUAACAAAAAAGACAAGUCUGCCACAAAGCUUGAGAGCAUCUUCGGAUGCAGAGGCGGCAGACUUCGGUGGCGCGAUAGCUCCAACGUUCUCAACUAUGACACGCAAAACGCGUGCUCCGUUGCAUGGAUUUUAUCUUG | ≤ -4.2 |
| GGAUCUUCUCGAUCUAACAAAAAAGACAAGUCUUCCACAAAGCUUGAGAGCAUCUUCGGAUGCAGUGGCGGCAGCCUUCGGGGGCGCGAUAGCGCCAACGUGCUCAACUAUGACACGCAAAACGCGUGCUCCGAUGAAUGGAGUUUAUCAUG | ≤ -4.2 |
| GGAUCUUCUCGAUCUAACAAAAAAGACAAGUCUGUCACAAAGCUUGAGAGCAUCUGCGGAUGCAGGGGCGGCAGCCUUCGGGGGCGCGAUAGCGCCAAUGUUCUCAACUAUGACACGCUAAACGCAUGCUCCGUUGAAUGGCGUUUAUCAUG | ≤ -4.2 |
| GGAUCUUCUCGAUCUAACAAAAAAGACAAGUCUGCCACAAAGCUUGAGACAAUCUUCGGAUGCAGAGGCGGCAGCCUUCGGUGACGGGAUAGCGCCAACUUUCUCAACUAUGACACGCAAGACGCGUGCUCCGUUGAAUGGAGUUUAUCAUG | ≤ -4.2 |
| GGAUCUUCUCGAUCUAACAAAAAAGACAAGUCUGCCACAAAGCUUGGGCGCAUCUUCGGAUGCAGAGGCGGCAGCCUUCGGUGGCGCGAUAGCGCCAACGUGCUCAACUAUGACACGCAAAAAGCGUGCUCCGUUCAAUGGAGUUUAUCAUG | ≤ -4.2 |
| GGAUCUUCUCGAUCUAACAAAAAAGACAAGUCUGCCACAAAGCUUGAGAGCAUCUUCGGAUGCAGAGGCGGCAGCUUUCGGUGGCGCGAUAGCGCCAACGUUCUCAACUAUGACACGCAAAACGCGUGCUCCGUUGAAUGGAGUUUAUCAUG | -3.9 |
